# About 450 (0.94%) of roughly 48,000 compounds were called active. This list was built around the results that the source calls inconclusive (neither active nor inactive); the mix of calls is not that of the screen. The call rests on the fitted dose curve; in most records, active means well fitted inhibition curve with a large enough effect; inconclusive means small, poorly fitted or top-dose-only effect; inactive means no such curve, though single readings can be large or run the other way. Potencies of inconclusive entries are doubtful fits and often do not repeat.
# Assay: Primary qHTS for Identification of Small Molecule Inhibitors of Huntingtin Promoter Activity; further: nearly all actives have a fitted effect of over 50% in size
# Conditions: HEK293 HTT promoter firefly luciferase reporter (activity 0% = vehicle and -100% = no light), 24 h; activity change, negative = inhibition: at 57.5 µM (top of the series)
# From the text: Assay Provider: Russell L. Margolis M.D.
# Department Neurology, Johns Hopkins University School of Medicine, Baltimore, MD
# Huntington's Disease (HD) is a neurodegenerative disorder caused by a CAG repeat expansion in exon 1 of huntingtin (HTT). While there are currently no disease-modifying treatments for HD, recent efforts have focused on development of nucleotide-based therapeutics to lower HTT expression. As an alternative to siRNA or oligonucleotide methods, we hypothesized that suppression of HTT expression might be accomplished by small molecules that either (1) directly decrease HTT expression by suppressing HTT promoter activity or (2) indirectly decrease HTT expression by increasing the promoter activity of HTT-AS, the gene antisense to HTT that appears to inhibit expression of HTT.
# We developed and employed a high throughput screen for modifiers of HTT and HTT-AS promoter activity using luminescent reporter HEK293 cells; of the 52,041 compounds tested, we identified 898 replicable hits. We used a rigorous stepwise approach to assess compound toxicity and the capacity of the compounds to specifically lower huntingtin protein in 5 different cell lines, including HEK293 cells, HD lymphoblastoid cells, mouse primary neurons, HD iPSCs differentiated into cortical-like neurons, and HD hESCs. We found no compounds which were able to lower huntingtin without lowering cell viability in all assays, though the potential efficacy of a few compounds at non-toxic doses could not be excluded.
# SEQUENCE No. (1, 2, 3, etc.); […] (e.g., Cells, Incubation, Reagent, etc.); VALUE and DESCRIPTION.
# 1; Reagent; 4 uL; 2,500 Hek293 luciferase reporter cells per wells
# 3; Compound; 23 nL; Control inhibitor / compound library
# 5; Reagent; 2.5 uL; Firefly Luc reagent; Dual-Glo Luciferase Reporter Assay System (Promega)
# 6; Time; 10 min; room temperature incubation
# 7; Detection; Luminescence; FLuc
# NOTES (numbers refer to sequence above)
# 1; High-throughput screening, measuring luminescence from a Hek293 luciferase reporter, was performed in 1,536 well white-walled tissue-culture treated plates. 2,500 cells were plated in 4 µL of Opti-MEM per well using a Multidrop Combi Reagent Dispenser (ThermoFisher).
# 2; Assay plates were cultured for 24 hours.
# 3; Control inhibitor (PTC124; final concentration of 50 uM) and compound library (at final concentrations of 460 nM - 57.5 uM) were added to the assay plate using the Kalypsis Pintool Robotic System equipped with 1536 pinheads.
# 4; Cells were then incubated for 24 hours at 37 degrees C prior to luminescence measurements.
# 5; In all cases, luminescence was measured using the Dual-Glo Luciferase Reporter Assay System (Promega) following the manufacturer's instructions.
# 6; Room temperature incubation.
# 7; Luminescence signal was obtained using the PerkinElmer ViewLux plate reader. Results were normalized to vehicle control (0% activity) and zero RLU (-100% activity).
# Potency means the concentration at half of the fitted maximal effect; tags describe the fitted curve by direction and shape.
Structure (SMILES),"activity change, negative = inhibition",Potency
O=C1CC(c2ccc(Cl)cc2)Sc2nc(-c3ccc(F)cc3)nn21 (stereo unspecified),inactive: -8.92% [at 11.5 µM],
COc1cccc(NC(=O)/C(C#N)=C\c2cn(Cc3ccc(Cl)cc3)c3ccccc23)c1,,"inconclusive: 17.8 µM [inhibitor, partial curve, poor fit]"
Cc1ccc(Cl)cc1N1CCN(C(=O)c2ccc(C)c(-n3c(C)nc4cccnc43)c2)CC1,,"inconclusive: 22.4 µM [inhibitor, partial curve, poor fit]"
CC1CCCCN1S(=O)(=O)c1ccc2c(c1)oc(=O)n2CC(=O)Nc1ccc(Cl)cc1 (stereo unspecified),,"inconclusive: 31.6 µM [inhibitor, single point]"
Cc1ccc(NC(=O)C(Cc2ccccc2)NS(=O)(=O)c2cccc3nsnc23)c(C)c1 (stereo unspecified),,"inconclusive: 35.5 µM [inhibitor, single point]"
CCN1CCC(N(Cc2ccc3c(c2)OCO3)C(=O)Nc2ccc(Br)c(C)c2)CC1,inactive: -20.6%,
CCn1c(=O)n(CC)c2cc(N3CCCCC3)c(NC(=O)Nc3cc(Cl)ccc3OC)cc21,,"inconclusive: 12.6 µM [inhibitor, partial curve, poor fit]"
COc1ccc(-n2c(-c3ccco3)nc3c(cnn3-c3ccc(C)cc3)c2=O)cc1,,"inconclusive: 39.8 µM [inhibitor, single point]"
CCCCOCc1cc(CN2CCN(c3cccc(Cl)c3)CC2)c(O)c2ncccc12,,"inconclusive: 14.1 µM [inhibitor, partial curve, poor fit]"
O=C(c1cccs1)N1CCCc2cc(NS(=O)(=O)c3ccc(F)cc3)ccc21,,"inconclusive: 25.1 µM [inhibitor, partial curve]"
COCCCNC(=O)CCc1c(C)nc2cc(-c3ccc(Cl)cc3)nn2c1C,,"inconclusive: 0.316 µM [inhibitor, full curve, poor fit]"
O=C(c1ccc2c(=O)n(CCc3ccccc3)c(=O)[nH]c2c1)N1CCN(c2ccc(Cl)cc2)CC1,,"inconclusive: 8.91 µM [inhibitor, partial curve, poor fit]"
O=C1CC(c2ccc(Cl)cc2)N=C(NC(=O)c2ccccc2)N1 (stereo unspecified),,"inconclusive: 31.6 µM [inhibitor, partial curve, poor fit]"
Cc1ccc(NC(=O)Cn2c(=O)ccc3cc(S(=O)(=O)N4CCC(C)CC4)ccc32)cc1Cl,,"inconclusive: 11.2 µM [inhibitor, partial curve]"
CC(C)C(=O)OCc1cc(=O)n2nc(C3CCCCC3)sc2n1,inactive: 13.1%,
OC[C@H]1O[C@@H](Oc2ccc(O)cc2)[C@H](O)[C@@H](O)[C@H]1O,inactive: -5.74%,
COCCNc1ncnc2c1c(-c1ccccc1)cn2-c1cccc(Cl)c1,,"inconclusive: 28.2 µM [inhibitor, single point]"
Cc1cc(N=Nc2ccc(S(=O)(=O)Nc3ccccn3)cc2)c(N)cc1O,inactive: 223%,
Cc1ccc(NC(=O)C2CCCN2S(=O)(=O)c2cccc3cccnc23)cc1C (stereo unspecified),,"inconclusive: 35.5 µM [inhibitor, single point]"
O=C(NCCc1ccccc1)c1cc(Sc2ccc(F)cc2F)nc2ccccc12,,"inconclusive: 12.6 µM [inhibitor, partial curve]"
Cc1cccc(CS(=O)(=O)c2ncc(Cl)c(C(=O)NCc3ccccc3)n2)c1,,"inconclusive: 28.2 µM [inhibitor, single point]"

Structure (SMILES),"activity change, negative = inhibition",Potency
COc1ccc(NS(=O)(=O)c2ccc3[nH]c4c(c3c2)CCCCCC4)cc1,,"inconclusive: 20 µM [inhibitor, partial curve, poor fit]"
CCOc1cc(C2c3c(-c4ccccc4O)n[nH]c3C(=O)N2CCc2ccccc2)ccc1O (stereo unspecified),,"inconclusive: 39.8 µM [inhibitor, single point]"
Cc1ccc(OCC(=O)Nc2ccc(C(=O)OCc3cc(=O)n4c(C)csc4n3)cc2)cc1,,"inconclusive: 20 µM [inhibitor, single point]"
COc1ccc(-c2onc(C)c2C)cc1S(=O)(=O)NC1CCC(C)CC1 (stereo unspecified),,"inconclusive: 25.1 µM [inhibitor, single point]"
COc1ccc(N2CCN(C(=O)Nc3cccc(C(F)(F)F)c3)CC2)cc1,,"inconclusive: 28.2 µM [inhibitor, single point]"
CNC[C@H](O)[C@@H](O)[C@H](O)[C@H](O)CO,inactive: 5.86%,
CCOc1ccc(NC(=O)c2ccc(F)c(S(=O)(=O)NCc3ccc4c(c3)OCO4)c2)cc1,,"inconclusive: 28.2 µM [inhibitor, partial curve, poor fit]"
O=C(NCCCc1nc2ccccc2n1Cc1ccc(Cl)cc1)c1ccco1,,"inconclusive: 39.8 µM [inhibitor, single point]"
CCc1cccc(C)c1NC(=O)CSc1nnc(N)s1,inactive: -8.89%,
Cc1ccccc1N1CCN(S(=O)(=O)c2nnc(NC(=O)c3ccc(Cl)cc3)s2)CC1,,"inconclusive: 39.8 µM [inhibitor, single point]"
CCCC12CN3CC(C)(CN(C1)C3c1cn(C)c3ccccc13)C2=O (stereo unspecified),inactive: -18.6%,
CSc1nn(Cc2ccc(Br)cc2)c(N(C(C)=O)C(C)=O)c1S(=O)(=O)c1ccccc1,,"inconclusive: 39.8 µM [inhibitor, single point]"
CCc1ccccc1NC(=O)C1CCCN(c2nnc(-n3c(C)ccc3C)s2)C1 (stereo unspecified),inactive: -28%,
Cc1c(C(=O)N(C)c2cccc(C(F)(F)F)c2)sc2nc3n(c(=O)c12)CCCCC3,,"inconclusive: 28.2 µM [inhibitor, partial curve, poor fit]"
Fc1ccc(CNc2nc3ccc(Cl)cc3n3nnnc23)cc1,inactive: -5.49%,
CCSc1ncc(Cl)c(C(=O)N2CCN(c3ccc(OC)cc3)CC2)n1,,"inconclusive: 25.1 µM [inhibitor, partial curve, poor fit]"
O=C(Nc1ccc2c(c1)N(C1CCCC1)C(=O)c1ccccc1S2)c1ccc(F)cc1,,"inconclusive: 10 µM [inhibitor, partial curve, poor fit]"
O=S(=O)(c1cccc(Cl)c1)c1nnn2c1nc(NC1CCCCCC1)c1sccc12,inactive: -13.8%,
CCN(CC)c1ccc(NC(=O)C2COc3ccc(OC)cc3C2)c(C)c1 (stereo unspecified),,"inconclusive: 15.8 µM [inhibitor, partial curve]"
CN1CCC(Nc2ncc3ncnc(Nc4ccc(F)c(Cl)c4)c3n2)CC1,inactive: -16.1%,
CCC(=O)Oc1ccc(-c2nc3ccccc3c(=O)o2)cc1,inactive: -8.16%,

Structure (SMILES),"activity change, negative = inhibition",Potency
COc1ccc(-c2nnc(SCC(=O)Nc3ccc(F)cc3)s2)cc1,,"inconclusive: 20 µM [inhibitor, partial curve, poor fit]"
Cc1cccc(N2C(=O)CCSC23C(=O)N(Cc2ccc(F)cc2)c2ccccc23)c1 (stereo unspecified),,"inconclusive: 25.1 µM [inhibitor, single point]"
Cc1ccc(-c2c(C(=O)NCCc3ccc(Cl)cc3)oc(=O)c3ccccc23)cc1,,"inconclusive: 39.8 µM [inhibitor, partial curve, poor fit]"
Cc1nnc(SCC(=O)NCc2ccccc2F)c2nn(-c3ccc(Cl)cc3)c(C)c12,,"inconclusive: 17.8 µM [inhibitor, partial curve, poor fit]"
COCCc1nn2c(=O)cc(COC(=O)c3ccc(C(C)(C)C)cc3)nc2s1,,"inconclusive: 31.6 µM [inhibitor, single point]"
Cc1ccc(S(=O)(=O)c2nc(-c3ccc(Cl)cc3)oc2N2CCCCCC2)cc1,,"inconclusive: 15.8 µM [inhibitor, partial curve, poor fit]"
CN1CC(=O)N(CC(=O)Nc2ccc(Cl)c(C(F)(F)F)c2)c2ccccc2C1=O,,"inconclusive: 28.2 µM [inhibitor, single point]"
O=C(COc1ccc(F)cc1)Nc1ccc2nc(SCc3ccccc3)sc2c1,inactive: 5.6%,
O=C(CC1(O)C(=O)N(CCc2ccccc2)c2ccc(Br)cc21)c1ccccc1O (stereo unspecified),,"inconclusive: 17.8 µM [inhibitor, partial curve, poor fit]"
CC(C)(C)C(=O)Nc1c(C(=O)N2CCN(c3ccc(F)cc3)CC2)oc2ccccc12,,"inconclusive: 35.5 µM [inhibitor, partial curve, poor fit]"
COc1cc(CNC(=O)c2cc3n(n2)CCCN(Cc2ccc(C)cc2)C3=O)cc(OC)c1OC,,"inconclusive: 17.8 µM [inhibitor, partial curve, poor fit]"
Cc1nc(-c2ccc(F)cc2)sc1CCNC(=O)c1ccco1,inactive: 7.28%,
Cc1cc(C)cc(NC(=O)Cn2nnc(C(=O)Nc3cc(C)cc(C)c3)c2N)c1,,"inconclusive: 35.5 µM [inhibitor, partial curve, poor fit]"
CSc1ccc(CCNC(=O)C(C)n2c(C)c3cnn(-c4ccccc4)c(=O)c3c2C)cc1 (stereo unspecified),,"inconclusive: 39.8 µM [inhibitor, single point]"
CCOC(=O)c1cc(-c2ccccc2)n(CCCC(=O)Nc2cccc(Cl)c2C)c1C,,"inconclusive: 25.1 µM [inhibitor, single point]"
CC(=O)Nc1cc(C(=O)NCc2ccc(F)cc2Cl)ccc1Sc1ccc(Cl)cc1,,"inconclusive: 39.8 µM [inhibitor, single point]"
COc1ccc(CNC(=O)CCCc2cn(C)c3ccccc23)c(OC)c1,,"inconclusive: 28.2 µM [inhibitor, single point]"
COc1ccccc1N(Cc1cc2cccc(C)c2[nH]c1=O)C(=O)c1cccc(Cl)c1,,"inconclusive: 31.6 µM [inhibitor, partial curve, poor fit]"
COc1ccc(CCn2c3c(c(=O)[nH]c2=O)C(NC(=O)c2ccccc2)(C(F)(F)F)C(=O)N3)cc1OC (stereo unspecified),inactive: -8.76%,
